# Results taken from PMC4336329 (PLoS ONE, 2015).
# Hit rate of the full screen: of about 310,000 compounds, about 2,200 (0.71%) showed an effect of 50% or more. Effects have a minus sign here. The list shows a part of the results.
# Molecular target: human ether-à-go-go-related gene (hERG) potassium channel (human, UniProt Q12809)
# Test: primary screen, population patch clamp on CHO cells stably expressing hERG
# Sequence of human ether-à-go-go-related gene (hERG) potassium channel (Q12809 whole entry, looked up): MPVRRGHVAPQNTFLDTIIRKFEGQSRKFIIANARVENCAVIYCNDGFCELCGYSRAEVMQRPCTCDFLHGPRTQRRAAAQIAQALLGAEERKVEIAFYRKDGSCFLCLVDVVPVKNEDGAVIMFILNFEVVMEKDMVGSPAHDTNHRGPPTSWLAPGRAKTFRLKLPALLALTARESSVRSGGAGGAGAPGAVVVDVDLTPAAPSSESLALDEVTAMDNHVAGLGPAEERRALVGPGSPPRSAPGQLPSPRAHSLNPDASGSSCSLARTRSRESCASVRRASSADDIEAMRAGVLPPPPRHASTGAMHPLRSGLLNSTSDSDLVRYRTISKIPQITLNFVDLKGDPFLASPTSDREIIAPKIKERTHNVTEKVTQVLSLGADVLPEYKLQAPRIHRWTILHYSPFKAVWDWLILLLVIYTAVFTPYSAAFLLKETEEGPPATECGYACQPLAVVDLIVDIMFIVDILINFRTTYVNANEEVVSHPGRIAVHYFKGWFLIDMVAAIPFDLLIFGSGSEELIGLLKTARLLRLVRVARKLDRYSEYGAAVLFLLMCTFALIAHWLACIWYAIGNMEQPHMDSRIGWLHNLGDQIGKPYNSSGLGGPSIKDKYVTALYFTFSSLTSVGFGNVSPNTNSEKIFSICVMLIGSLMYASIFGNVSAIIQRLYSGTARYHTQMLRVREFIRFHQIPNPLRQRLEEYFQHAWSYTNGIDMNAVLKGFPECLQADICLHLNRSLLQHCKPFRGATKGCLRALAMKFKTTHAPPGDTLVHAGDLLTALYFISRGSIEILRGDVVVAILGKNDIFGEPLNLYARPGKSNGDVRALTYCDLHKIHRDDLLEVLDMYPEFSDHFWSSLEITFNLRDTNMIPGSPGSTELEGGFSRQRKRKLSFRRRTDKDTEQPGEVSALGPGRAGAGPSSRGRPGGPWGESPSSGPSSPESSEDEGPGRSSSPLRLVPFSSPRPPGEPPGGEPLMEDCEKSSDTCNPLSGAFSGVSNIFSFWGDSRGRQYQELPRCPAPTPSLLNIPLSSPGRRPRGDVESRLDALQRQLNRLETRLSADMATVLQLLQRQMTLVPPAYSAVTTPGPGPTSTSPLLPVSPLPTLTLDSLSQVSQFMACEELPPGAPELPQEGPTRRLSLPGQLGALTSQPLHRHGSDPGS
row,SMILES,"hERG current change (%, negative = inhibition) at 1uM [%]"
1,O=c1c2ccccc2nc(N/N=C/c2ccccc2)n1O,1.41
2,CC1=Nc2ccc(C)c3nc(C)cc(c23)N1c1ccc(C)cc1,2.45
3,Cc1cc(C)c2cc(CN(Cc3cccs3)Cc3nnnn3CC3CCCO3)c(=O)[nH]c2c1 (stereo not shown),-4.65
4,Cc1cc(NC(=O)CCCC(=O)N(CC(=O)NC2CCCCC2)c2ccccc2)no1,7.05
5,CC(C)(C)c1ccc(S(=O)(=O)NCCc2ccncc2)cc1,5.9
6,COc1ccc(Cc2n[nH]c(=S)n2C)cc1Br,9.66
7,CCCCC#Cc1ccc(C(=O)NNC(=O)Nc2ccccc2)o1,13.1
8,CCCc1ccc2oc(C(=O)NCc3nnc(C)o3)c(C)c2c1,1.11
9,CC1CCN(c2ccc(C(=O)NCCc3ccccc3)cn2)CC1,-5.16
10,CC1=C(CC(=O)c2ccc(Cl)cc2)C(=O)c2ccccc2C1=O,5.7
11,O=c1oc2ccccc2cc1-c1nc2ccccc2[nH]1,15.9
12,CNC(C(=O)c1ccccc1)C(OC(C)C)c1ccc(Cl)cc1.[O-][Cl+3]([O-])([O-])O (stereo not shown),0.598
13,COc1ccccc1NC(=O)CSc1c2c(nc3ccccc13)CCC2,7.97
14,Cc1ccsc1-c1nc(-c2ccccc2)c(-c2ccccc2)[nH]1,19.8
15,CCCNC(=S)N1CCC(NC(=O)c2ccc(C)cc2)CC1,11.3
16,Cc1ccc(NC(=O)CCC(=O)N/N=C/C=C/c2ccccc2)cc1,7.57
17,CCN(CC)C(=O)/C(=C\c1ccc2c(c1)OCO2)NC(=O)c1ccc(Br)cc1,-41.8
18,c1ccc(-c2c3ccccc3nc3[nH]c4ccccc4c23)cc1,10.8
19,COc1ccc(C2CC3CC(c4ccccc4)N2O3)cc1 (stereo not shown),3.09
20,CCOc1ccc(NC(=O)CN(C)C(=O)c2ccccc2SCc2c(C)noc2C)cc1OCC,-10.8
21,O=C(CNCc1ccco1)Nc1ccc(N2CCCCCC2)cc1.O=C(O)C(=O)O,7.67
22,O=c1[nH][nH]c2cc(=O)n(-c3ccc(Cl)cc3)nc12,16
23,COc1ccc(N(CC(=O)NCC2CCCO2)C(=O)CCC(=O)Nc2nccs2)c(OC)c1 (stereo not shown),11.2
24,O=C(/C=N/O)NCCCN1CCOCC1,16.5
25,COc1ccc(C(C)=O)cc1CSc1nnc(-c2ccc(Cl)cc2)n1-c1ccccc1,-2.21
